# From PubChem BioAssay (NCATS)
# Inconclusive means that the source gave no clear call. Such entries were picked first, then a sample of the others. For part of these data: Potencies of inconclusive entries are left out as doubtful fits. Activity calls are given as the source filed them. Unless noted, the call rests on the fitted dose curve; in most records, active means well fitted curve in the direction sought with a large enough effect; inconclusive means small, poorly fitted or top-dose-only effect, or another doubt; inactive means no such curve, though single readings can be large; an effect the other way counts as inactive or inconclusive.
# Legend:
# [1] = qHTS of pediatric cancer cell lines to identify multiple opportunities for drug repurposing: Primary screen for SJ-GBM2 cells (AID 1347091); further: potency means the concentration at half of the fitted maximal effect;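 on activity change, negative = cytotoxic: plate controls were DMSO neutral control for no effect and bortezomib for full effect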
# Method in brief: (§1)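 Eight- or eleven-point concentration series, 48 h treatment at 37 degrees C in growth media; readout CellTiter-Glo luminescence. Potency and efficacy were taken from the concentration-response curves.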
# [2] = qHTS of pediatric cancer cell lines to identify multiple opportunities for drug repurposing: Primary screen for Rh18 cells (AID 1347102); further: nearly all actives have a fitted effect of over 65% in size; further: potency means the concentration at half of the fitted maximal effect; on activity change, negative = cytotoxic: on the % scale 0 is the no-effect control and ±100 the full control effect
# Method in brief: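 Cells (500-1,000/well) in growth media were settled 5 h at 37 degrees C, then given compounds for 48 h. Viability was read as CellTiter-Glo luminescence. Primary runs used MIPE at 11 points (0.78 nM-46 µM) and NPC at 8 points (0.59 nM-46 µM); follow-ups used 11 points.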
# [3] = qHTS of pediatric cancer cell lines to identify multiple opportunities for drug repurposing: Primary screen for Rh41 cells (AID 1347108); further: nearly all actives have a fitted effect of over 70% in size; further: potency means the concentration at half of the fitted maximal effect;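 on activity change, negative = cytotoxic: luminescence drop marks cytotoxic hits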
# Method in brief: (§2)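 CRCs from 8- or 11-point titrations (lowest final 0.59 nM NPC, 0.78 nM MIPE). Cell viability: CellTiter-Glo after 48 h incubation, 15 min room-temperature development, luminescence imaging.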
# [4] = target: Cytochrome P450 3A4 (Homo sapiens) (UniProt P08684); test: Cytochrome P450 family 3 subfamily A member 4 (CYP3A4) small molecule antagonists: luciferase qHTS assay (AID 1645841; active means well fitted curve in the direction sought with a large enough effect in the repeat runs; inconclusive means weak or mixed curves; inactive means no such curve, though single readings can be large; an effect the other way counts as inactive or inconclusive; further: nearly all actives have a fitted effect of over 45% in size; further: potency means the concentration at half of the fitted maximal effect)
# Method in brief: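 P450-Glo CYP3A4 enzyme with proluciferin substrate was preincubated with DMSO-dissolved compounds for 10 min at room temperature. NADPH regeneration solution started a 1 h reaction. Detection reagent stopped it, and luminescence was read after 20 min.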
# CAOV3 = test: Primary qHTS to identify gynecologic anti-cancer compounds using libraries of approved drugs and bioactive compounds (AID 1345084); details: Gynecologic cancer cell panel viability, ATPlite luminescence, 48 h; series mostly up to 57.5 µM; further: nearly all actives have a fitted effect of over 55% in size; further: potency means the concentration at half of the fitted maximal effect; on activity change, negative = cytotoxicity: on the % scale 0 is the no-effect control and ±100 the full control effect
# Method in brief: (§3)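 ATP-based viability (ATPlite), 1,000 cells/well, 16 h pre-incubation, 48 h compound at 37 C, 5% CO2, 15 min RT before read.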
# OV90 = test: as above; details: Gynecologic cancer cell panel viability, ATPlite luminescence, 48 h; series mostly up to 57.5 µM
# Method in brief: as §3
# PA-1 = test: as above; details: Gynecologic cancer cell panel viability, ATPlite luminescence, 48 h; series mostly up to 57.5 µM
# Method in brief: as §3
# Tov-21-G = test: as above; details: Gynecologic cancer cell panel viability, ATPlite luminescence, 48 h; series mostly up to 57.5 µM
# Method in brief: as §3
# [5] = NFAT Signaling Pathway (AID 444; active means well fitted curve in either direction with a large enough effect, not every such curve was filed as active; inconclusive means small, poorly fitted or top-dose-only effect, or another doubt;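 further: carbachol stimulus at about its EC50 of 1 µM final; on the % scale 0 is the no-effect control and ±100 the full control effect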); details: Jurkat NFAT-bla M1, carbachol, beta-lactamase ratio, 5 h
# Method in brief: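 Jurkat cells carrying an NFAT-driven β-lactamase reporter and co-transfected muscarinic M1 receptor were treated with compound plus carbachol (1 uM final, an EC50 level) for 5 h at 37 °C. CCF4 loading followed for 1 h at RT; 460/530 nm ratio gave %activity.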
# [6] = qHTS of pediatric cancer cell lines to identify multiple opportunities for drug repurposing: Primary screen for NB1643 cells (AID 1347099); details: NB1643 neuroblastoma viability, CellTiter-Glo luminescence, 48 h; activity change, negative = cytotoxic: at 46 µM (top of the series); further: nearly all actives have a fitted effect of over 50% in size; further: potency means the concentration at half of the fitted maximal effect;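 on activity change, negative = cytotoxic: plate controls were DMSO neutral control for no effect and bortezomib positive control for full effect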
# Method in brief: as §2
# Hek293T = test: Primary qHTS to identify gynecologic anti-cancer compounds using libraries of approved drugs and bioactive compounds (AID 1345084); details: Gynecologic cancer cell panel viability, ATPlite luminescence, 48 h, control line for the selectivity index; series mostly up to 57.5 µM; further: nearly all actives have a fitted effect of over 55% in size; further: potency means the concentration at half of the fitted maximal effect; on activity change, negative = cytotoxicity: on the % scale 0 is the no-effect control and ±100 the full control effect
# Method in brief: as §3
# [7] = qHTS of pediatric cancer cell lines to identify multiple opportunities for drug repurposing: Primary screen for BT-37 cells (AID 1347094); further: potency means the concentration at half of the fitted maximal effect;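 on activity change, negative = cytotoxic: plate controls were DMSO for no effect and bortezomib for full effect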
# Method in brief: as §2
# [8] = qHTS of pediatric cancer cell lines to identify multiple opportunities for drug repurposing: Primary screen for MG 63 (6-TG R) cells (AID 1347105); details: MG 63 (6-TG R) viability, CellTiter-Glo, 48 h; activity change, negative = cytotoxic: at 46 µM (top of the series); further: on the % scale 0 is the no-effect control and ±100 the full control effect; nearly all actives have a fitted effect of over 50% in size
# Method in brief: as §2
# CP260 = test: qHTS profiling for inhibitors of Plasmodium falciparum proliferation (AID 504749); further: nearly all actives have a fitted effect of over 60% in size; further: potency means the concentration at half of the fitted maximal effect;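 on activity, negative = inhibition: 0% = DMSO vehicle and full inhibition = artemisinin control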; details: P. falciparum in erythrocytes, SYBR Green DNA, 72 h; series mostly up to 28.7 µM
# Method in brief: (§4)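 P. falciparum-infected erythrocytes (0.3% parasitemia, 2.5% hematocrit final) were exposed to compounds for 72 h at 37 C in 5% CO2, then lysed with SYBR Green buffer overnight at room temperature; parasite DNA fluorescence was normalized to artemisinin and DMSO controls.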
# [9] = P-glycoprotein substrates identified in KB-8-5-11 adenocarcinoma cell line, qHTS therapeutic library screen (AID 1346987); details: activity change, negative = cytotoxicity: at 44.5 µM (top of the series); further: nearly all actives have a fitted effect of over 65% in size; further: potency means the concentration at half of the fitted maximal effect
# Method in brief: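 P-gp-mediated resistance screen: KB-8-5-11 cells treated 72 h with compounds in dose-response. CellTiter-Glo viability.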
# [10] = system: Zika virus NS2B-NS3 protease; test: Primary screen GU AMC qHTS for Zika virus inhibitors (AID 1347154); further: potency means the concentration at half of the fitted maximal effect; nearly all actives have a fitted effect of over 70% in size
# Method in brief: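 Unlinked Zika NS2B hydrophilic domain/NS3 protease domain noncovalent complex (25 nM final) in 10 mM Tris-HCl pH 8.0, 0.01% Tween 20, with AMC peptide substrate. Fluorescence (ex 340, em 450 nm) change over 15 min, room temperature; percent inhibition fitted to 4-parameter Hill equation.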
# [11] = qHTS of pediatric cancer cell lines to identify multiple opportunities for drug repurposing: Primary screen for DAOY cells (AID 1347090); further: nearly all actives have a fitted effect of over 55% in size; further: potency means the concentration at half of the fitted maximal effect;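 on activity change, negative = cytotoxic: plate controls were DMSO for no effect and bortezomib for full effect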
# Method in brief: as §1
# ICS = test: qHTS profiling for inhibitors of Plasmodium falciparum proliferation (AID 504749); further: nearly all actives have a fitted effect of over 60% in size; further: potency means the concentration at half of the fitted maximal effect;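 on activity, negative = inhibition: 0% = DMSO vehicle and full inhibition = artemisinin control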; details: P. falciparum in erythrocytes, SYBR Green DNA, 72 h; series mostly up to 28.7 µM
# Method in brief: as §4
# W2 = test: as above; details: P. falciparum in erythrocytes, SYBR Green DNA, 72 h; activity, negative = inhibition: at 28.7 µM (top of the series)
# Method in brief: as §4
# Tags describe the fitted curve by direction and shape.
# UniProt P08684, sequence (P08684 whole entry, looked up): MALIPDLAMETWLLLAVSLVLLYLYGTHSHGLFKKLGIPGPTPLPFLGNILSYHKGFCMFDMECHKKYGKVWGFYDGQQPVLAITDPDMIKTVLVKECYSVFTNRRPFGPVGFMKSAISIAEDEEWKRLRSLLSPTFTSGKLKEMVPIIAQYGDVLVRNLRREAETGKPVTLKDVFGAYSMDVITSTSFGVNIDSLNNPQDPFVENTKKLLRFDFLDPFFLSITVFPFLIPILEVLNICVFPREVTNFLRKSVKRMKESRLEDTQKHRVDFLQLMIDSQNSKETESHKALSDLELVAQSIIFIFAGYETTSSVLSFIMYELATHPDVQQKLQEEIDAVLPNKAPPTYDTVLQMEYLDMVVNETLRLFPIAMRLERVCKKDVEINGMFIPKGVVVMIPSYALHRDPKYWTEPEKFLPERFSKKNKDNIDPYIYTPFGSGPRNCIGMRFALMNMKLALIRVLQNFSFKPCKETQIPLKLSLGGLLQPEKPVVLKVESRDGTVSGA
smiles,measurement,setting,value
Oc1ccc(CCNCCCCCCNCCc2ccccc2)cc1O,Potency,[1],"inconclusive [cytotoxic, partial curve]"
same,Potency,[2],"inconclusive [cytotoxic, partial curve, poor fit]"
same,Potency,[3],"inconclusive [cytotoxic, partial curve, poor fit]"
same,Potency,[4],"inconclusive [falling, full curve]"
same,Potency,CAOV3,"inconclusive [cytotoxic, single point]"
same,Potency,OV90,"inconclusive [cytotoxic, single point]"
same,Potency,PA-1,"inconclusive [cytotoxic, single point]"
same,Potency,Tov-21-G,"inconclusive [cytotoxic, single point]"
CN(C)CCOC(=O)C(c1ccccc1)C1(O)CCCC1 (stereo unspecified),"activity change, negative = inhibition",[5]; at 17.2 µM (top of the series),active: -76.1%
same,Potency,[6],inactive
O=C(O)Cc1ccc(OCCNC[C@H](O)c2ccccc2)cc1,Potency,[3],"inconclusive [cytotoxic, partial curve, poor fit]"
CNC[C@H](O)[C@@H](O)[C@H](O)[C@H](O)CO,Potency,Hek293T,"inconclusive [rising, full curve, poor fit]"
C[C@H]1C[C@H](O)c2ccsc2S1(=O)=O,Potency,[2],inactive
same,Potency,[4],"inconclusive [falling, partial curve, poor fit]"
same,Potency,Hek293T,inactive
CN(C)CCOC(=O)COc1ccc(Cl)cc1,Potency,[7],inactive
same,Potency,[8],inactive
same,Potency,[3],inactive
same,Potency,CP260,inactive
CCOC(=O)C(=O)CCc1ccccc1,Potency,[6],inactive
same,Potency,OV90,inactive
CCCC(=O)O[C@]1(C(=O)COC(=O)CC)CC[C@H]2[C@@H]3CCC4=CC(=O)CC[C@]4(C)[C@H]3[C@@H](O)C[C@@]21C,Potency,[2],inactive
same,Potency,[4],inactive
C[C@]12CC[C@@H]3c4ccc(O)cc4CC[C@H]3[C@@H]1CCC2=O,Potency,[9],"inconclusive [inhibitor, single point]"
same,Potency,[8],inactive
same,Potency,Hek293T,inactive
CO[C@@]1(NC(=O)CSCC#N)C(=O)N2C(C(=O)O)=C(CSc3nnnn3C)CS[C@@H]21,Potency,[9],inactive
same,Potency,[8],inactive
same,Potency,OV90,inactive
c1ccc(CC2=NCCN2)cc1,Potency,[4],"inconclusive [falling, single point]"
same,Potency,PA-1,inactive
same,Potency,CP260,inactive
CCCCCCOC(=O)NC(=N)c1ccc(NCc2nc3cc(C(=O)N(CCC(=O)OCC)c4ccccn4)ccc3n2C)cc1,Potency,[7],"inconclusive [cytotoxic, single point]"
same,Potency,[3],"inconclusive [cytotoxic, single point]"
same,Potency,[10],"inconclusive [inhibitor, full curve]"
same,Potency,Hek293T,"inconclusive [cytotoxic, single point]"
same,Potency,OV90,"inconclusive [cytotoxic, single point]"
COc1cc(NS(=O)(=O)c2ccc(N)cc2)nc(C)n1,Potency,[9],inactive
same,Potency,[1],inactive
same,Potency,[3],inactive
COc1ccc([C@@H]2CNC(=O)C2)cc1OC1CCCC1,"activity change, negative = inhibition",[5]; at 17.2 µM (top of the series),inactive: 2.36%
same,"activity change, negative = inhibition",[5]; at 38 µM (top of the series),inactive: 11.5%
same,Potency,[11],active: 3.72 µM
same,Potency,[6],active: 1.32 µM
same,Potency,[2],"inconclusive [cytotoxic, single point]"
same,Potency,[3],active: 3.72 µM
CC1(C)S[C@@H]2[C@H](NC(=O)C(C(=O)O)c3ccccc3)C(=O)N2[C@H]1C(=O)O (stereo partly specified),"activity change, negative = inhibition",[5]; at 17.2 µM (top of the series),inconclusive: 30.5% [activator]
same,Potency,[11],inactive
same,Potency,[7],inactive
same,Potency,[8],inactive
same,Potency,PA-1,inactive
C[C@H]1C[C@H]2[C@@H]3CCC4=CC(=O)C=C[C@]4(C)[C@@H]3C(=O)C[C@]2(C)[C@@]1(O)C(=O)CO,Potency,[11],inactive
O=C(O)c1ccccc1-c1ccc(C(F)(F)F)cc1,Potency,CP260,inactive
same,Potency,ICS,inactive
CC(Cc1cccc(C(F)(F)F)c1)NCCOC(=O)c1ccccc1 (stereo unspecified),Potency,[7],"inconclusive [cytotoxic, single point]"
same,Potency,W2,"inconclusive [inhibitor, single point]"
CC(=O)OCC1=C(C(=O)O)N2C(=O)[C@@H](NC(=O)CSc3ccncc3)[C@H]2SC1,Potency,[3],inactive
same,Potency,Hek293T,inactive
O=C(OCC1(COC(=O)c2cccnc2)CCCC(COC(=O)c2cccnc2)(COC(=O)c2cccnc2)C1O)c1cccnc1,Potency,[1],inactive
CC[C@@H](CO)NCCN[C@@H](CC)CO,Potency,[11],inactive
same,Potency,[3],inactive
same,Potency,PA-1,inactive
O=S(c1cc(Cl)cc(Cl)c1O)c1cc(Cl)cc(Cl)c1O,Potency,[1],"inconclusive [cytotoxic, single point]"
same,Potency,[10],"inconclusive [inhibitor, partial curve, poor fit]"
same,Potency,CP260,"inconclusive [inhibitor, full curve, poor fit]"
same,Potency,W2,inconclusive [activator]
